Source: the supplement of paper PMC12217912
Some of the results follow. Sequences were assembled here from the parent chain. Inactive controls read about 0.05.

B1: TEV protease; numbered along this chain (parent)
chain: MGESLFKGPRDYNPISSSICHLTNESDGHTTSLYGIGFGPFIITNKHLFRRNNGTLVVQSLHGVFKVKDTTTLQQHLVDGRDMIIIRMPKDFPPFPQKLKFREPQREERICLVTTNFQTKSMSSMVSDTSCTFPSGDGIFWKHWIQTKDGQCGSPLVSTRDGFIVGIHSASNFTNTNNYFTSVPKNFMELLTNQEAQQWVSGWRLNADSVLWGGHKVFMVKPEEPFQPVKEATQL

Variants of: B1
Assay: raw area under fraction-flipped curve 0-4 h after induction (AUC4h, not background-subtracted), DNA-recorder readout of cleavage of the substrate (dimensionless); higher = more cleavage of the substrate by the protease variant
Details: temperature: 34 °C; time window: 0-4 h after rhamnose induction
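Further: Bxb1 expression induced with 0.2% (w/v) L-rhamnose at OD600 near 0.5, cultures sampled hourly, flipped fraction per protease–substrate barcode pair counted by paired-end Illumina sequencing.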

Row | Variant | area with substrate ENLYFQD | area with substrate ENLYFQE | area with substrate ENLYFQF | area with substrate ENLYFQG | area with substrate ENLYFQH | area with substrate ENLYFQI | area with substrate ENLYFQK | area with substrate ENLYFQM | area with substrate ENLYFQN | area with substrate ENLYFQQ | area with substrate ENLYFQR | area with substrate ENLYFQS | area with substrate ENLYFQT | area with substrate ENLYFQV | area with substrate ENLYFQW | area with substrate ENLYFQL | area with substrate ENLYFQP | area with substrate ENLYFQY
1 | V183P | 0.0693 | 0.0479 | 0.0754 | 0.104 | 0.0705 | 0.0733 | 0.0541 | 0.067 | 0.0577 | 0.0629 | 0.0538 | 0.0941 | 0.0474 | 0.0496 | 0.0611 |  |  | 
2 | K185S | 0.0804 |  |  | 0.105 | 0.0801 |  |  | 0.0898 |  |  | 0.0456 | 0.104 | 0.0684 |  | 0.0775 | 0.0655 | 0.0577 | 0.0566
3 | Q198N | 0.0924 |  | 0.0725 |  |  | 0.0615 | 0.0542 | 0.102 |  |  | 0.0623 | 0.1 | 0.0846 |  | 0.0328 |  |  | 0.0766
4 | Q227W | 0.0674 |  |  |  |  | 0.0592 | 0.0444 | 0.0971 | 0.0807 | 0.069 | 0.0548 | 0.0991 | 0.0651 |  | 0.0532 |  |  | 
5 | H62I |  | 0.0681 |  |  |  | 0.0604 |  |  | 0.0883 |  | 0.075 | 0.0977 | 0.0608 |  |  |  |  | 0.0945
6 | V183D |  | 0.0522 |  |  | 0.0481 | 0.046 |  | 0.0462 | 0.0445 | 0.0429 |  | 0.0494 | 0.0543 | 0.0255 |  | 0.0373 | 0.0673 | 
7 | F140W |  |  | 0.0598 |  |  | 0.0367 | 0.0642 |  |  |  |  | 0.0974 |  |  | 0.0667 |  |  | 0.0581
8 | T181F |  |  | 0.0595 |  | 0.0569 | 0.0601 | 0.0512 | 0.0601 | 0.0595 | 0.0589 | 0.0528 | 0.0607 |  |  | 0.0642 | 0.0637 | 0.0494 | 0.0558
9 | L205H |  |  | 0.0749 | 0.0778 | 0.0588 |  |  |  |  | 0.0481 |  | 0.0753 | 0.0564 |  | 0.0581 |  |  | 
10 | D79T |  |  |  | 0.125 |  |  |  | 0.0719 | 0.0731 |  |  | 0.0915 |  |  | 0.0588 | 0.0512 | 0.0506 | 
11 | W199P |  |  |  | 0.0546 | 0.0736 | 0.0684 | 0.0691 | 0.0525 |  | 0.0721 | 0.0691 | 0.069 | 0.0687 |  | 0.0574 | 0.064 |  | 
12 | T129L |  |  |  |  | 0.0852 | 0.0533 | 0.0604 | 0.0709 | 0.0768 |  | 0.0711 | 0.0964 | 0.0585 | 0.0614 |  | 0.0653 |  | 0.0549
13 | I145V |  |  |  |  | 0.0752 | 0.0681 |  | 0.0999 |  |  |  | 0.122 | 0.0825 | 0.0451 | 0.0849 | 0.0822 |  | 0.0844
14 | R160W |  |  |  |  | 0.105 |  | 0.0863 | 0.0773 |  | 0.0652 | 0.0643 | 0.102 | 0.0842 |  | 0.106 |  |  | 
15 | G166W |  |  |  |  | 0.0526 | 0.0531 |  |  | 0.0592 | 0.0491 | 0.0544 | 0.0501 | 0.0665 | 0.0467 | 0.0399 |  | 0.047 | 0.0716
16 | Q97H |  |  |  |  |  | 0.0664 | 0.0847 |  |  |  | 0.0627 | 0.0965 | 0.0697 | 0.0652 | 0.0629 | 0.0506 | 0.0468 | 
17 | V57N |  |  |  |  |  |  | 0.0445 | 0.115 |  | 0.0903 | 0.0714 | 0.101 | 0.0728 | 0.0626 |  | 0.0495 | 0.0505 | 
18 | K90G |  |  |  |  |  |  |  |  |  |  | 0.0595 | 0.0989 |  |  | 0.0713 |  |  | 0.0667
